# Test results: the supplement of paper PMC8728848
# The list shows a part of the results.
# B1: Gal 4 (Mus musculus), P56470 (protein)
# chain: MAYVPAPGYQPTYNPTLPYYQPIPGGLNVGMSVYIQGVASEHMKRFFVNFVVGQDPGSDVAFHFNPRFDGWDKVVFNTLQGGKWGSEERKRSMPFKKGAAFELVFIVLAEHYKVVVNGNPFYEYGHRLPLQMVTHLQVDGDLQLQSINFIGGQPLRPQGPPMMPPYPGPGHCHQQLNSLPTMEGPPTFNPPVPYFGRLQGGLTARRTIIIKGYVPPTGKSFAINFKVGSSGDIALHINPRMGNGTVVRNSLLNGSWGSEEKKITHNPFGPGQFFDLSIRCGLDRFKVYANGQHLFDFAHRLSAFQRVDTLEIQGDVTLSYVQI
# Key:
# Experiment in all cases: glycan array binding signal (z-score within array); higher = stronger binding
# Conditions in all cases: glycan notation: IUPAC condensed, linker removed
# Gal3S(b1-3)GalNAc = molecular target: Gal3S(b1-3)GalNAc
# How it was run: (§1)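 The binding signal is a Z-score computed within each array and averaged over linkers. Arrays of the same protein sequence at different concentrations or buffers were also averaged together. Data originate from 3228 arrays in the Consortium for Functional Glycomics database, kept only where the protein sequence was available.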
# Gal3S(b1-3)GlcNAc = molecular target: Gal3S(b1-3)GlcNAc
# How it was run: as §1
# [1] = molecular target: Gal3S(b1-3)[Fuc(a1-4)]GlcNAc
# How it was run: as §1
# Gal3S(b1-4)Glc = molecular target: Gal3S(b1-4)Glc
# How it was run: as §1
# Gal3S(b1-4)Glc6S = molecular target: Gal3S(b1-4)Glc6S
# How it was run: as §1
# Gal3S(b1-4)GlcNAc = molecular target: Gal3S(b1-4)GlcNAc
# How it was run: as §1
# Gal3S(b1-4)GlcNAc6S = molecular target: Gal3S(b1-4)GlcNAc6S
# How it was run: as §1
# [2] = molecular target: Gal3S(b1-4)[Fuc(a1-3)]Glc
# How it was run: as §1
# [3] = molecular target: Gal3S(b1-4)[Fuc(a1-3)]Glc6S
# How it was run: as §1
# [4] = molecular target: Gal3S(b1-4)[Fuc(a1-3)]GlcNAc
# How it was run: as §1
# [5] = molecular target: Gal3S(b1-4)[Fuc(a1-3)]GlcNAc6S
# How it was run: as §1
# Gal3S4S(b1-4)GlcNAc = molecular target: Gal3S4S(b1-4)GlcNAc
# How it was run: as §1
# Gal3S6S(b1-4)GlcNAc = molecular target: Gal3S6S(b1-4)GlcNAc
# How it was run: as §1
# Gal3S6S(b1-4)GlcNAc6S = molecular target: Gal3S6S(b1-4)GlcNAc6S
# How it was run: as §1
# Gal4S(b1-4)GlcNAc = molecular target: Gal4S(b1-4)GlcNAc
# How it was run: as §1
# Gal4S6S(b1-4)GlcNAc = molecular target: Gal4S6S(b1-4)GlcNAc
# How it was run: as §1
# Gal6P(b1-4)GlcNAc = molecular target: Gal6P(b1-4)GlcNAc
# How it was run: as §1
# Gal6S(b1-3)GlcNAc = molecular target: Gal6S(b1-3)GlcNAc
# How it was run: as §1
# Gal6S(b1-3)GlcNAc6S = molecular target: Gal6S(b1-3)GlcNAc6S
# How it was run: as §1
# Gal6S(b1-4)Glc = molecular target: Gal6S(b1-4)Glc
# How it was run: as §1
# Gal6S(b1-4)Glc6S = molecular target: Gal6S(b1-4)Glc6S
# How it was run: as §1
# Gal6S(b1-4)GlcNAc = molecular target: Gal6S(b1-4)GlcNAc
# How it was run: as §1
# Gal6S(b1-4)GlcNAc6S = molecular target: Gal6S(b1-4)GlcNAc6S
# How it was run: as §1
# GalNAc(a1-3)Gal = molecular target: GalNAc(a1-3)Gal
# How it was run: as §1
# GalNAc(a1-3)GalNAc = molecular target: GalNAc(a1-3)GalNAc
# How it was run: as §1
# [6] = molecular target: GalNAc(a1-3)GalNAc(a1-3)Gal(a1-4)Gal(b1-4)GlcNAc
# How it was run: as §1
# [7] = molecular target: GalNAc(a1-3)GalNAc(b1-3)Gal(a1-4)Gal(b1-4)Glc
# How it was run: as §1
# GalNAc(b1-3)Gal = molecular target: GalNAc(b1-3)Gal
# How it was run: as §1
# [8] = molecular target: GalNAc(b1-3)Gal(a1-4)Gal(b1-4)GlcNAc
# How it was run: as §1
# [9] = molecular target: GalNAc(b1-3)Gal(a1-4)Gal(b1-4)GlcNAc(b1-3)Gal(b1-4)Glc
# How it was run: as §1
# [10] = molecular target: GalNAc(b1-3)Gal(a1-6)Gal(b1-4)Glc
# How it was run: as §1
# GalNAc(b1-3)GalNAc = molecular target: GalNAc(b1-3)GalNAc
# How it was run: as §1
# GalNAc(b1-3)GlcNAc = molecular target: GalNAc(b1-3)GlcNAc
# How it was run: as §1
# GalNAc(b1-4)Gal(b1-4)Glc = molecular target: GalNAc(b1-4)Gal(b1-4)Glc
# How it was run: as §1
# GalNAc(b1-4)GlcNAc = molecular target: GalNAc(b1-4)GlcNAc
# How it was run: as §1
# [11] = molecular target: GalNAc(b1-4)GlcNAc(b1-2)Man
# How it was run: as §1
# [12] = molecular target: GalNAc(b1-4)GlcNAc(b1-2)Man(a1-3)[GalNAc(b1-4)GlcNAc(b1-2)Man(a1-6)]Man(b1-4)GlcNAc(b1-4)GlcNAc
# How it was run: as §1
# [13] = molecular target: GalNAc(b1-4)GlcNAc(b1-3)GalNAc(b1-4)GlcNAc
# How it was run: as §1
binder,measurement,setting,value
B1,glycan array binding signal (z-score),Gal3S(b1-3)GalNAc,0.335
same,glycan array binding signal (z-score),Gal3S(b1-3)GlcNAc,0.334
same,glycan array binding signal (z-score),[1],-0.25
same,glycan array binding signal (z-score),Gal3S(b1-4)Glc,-0.044
same,glycan array binding signal (z-score),Gal3S(b1-4)Glc6S,1.02
same,glycan array binding signal (z-score),Gal3S(b1-4)GlcNAc,-0.156
same,glycan array binding signal (z-score),Gal3S(b1-4)GlcNAc6S,-0.175
same,glycan array binding signal (z-score),[2],-0.198
same,glycan array binding signal (z-score),[3],-0.18
same,glycan array binding signal (z-score),[4],-0.18
same,glycan array binding signal (z-score),[5],1.81
same,glycan array binding signal (z-score),Gal3S4S(b1-4)GlcNAc,-0.238
same,glycan array binding signal (z-score),Gal3S6S(b1-4)GlcNAc,-0.191
same,glycan array binding signal (z-score),Gal3S6S(b1-4)GlcNAc6S,-0.184
same,glycan array binding signal (z-score),Gal4S(b1-4)GlcNAc,-0.209
same,glycan array binding signal (z-score),Gal4S6S(b1-4)GlcNAc,-0.236
same,glycan array binding signal (z-score),Gal6P(b1-4)GlcNAc,-0.286
same,glycan array binding signal (z-score),Gal6S(b1-3)GlcNAc,-0.247
same,glycan array binding signal (z-score),Gal6S(b1-3)GlcNAc6S,-0.2
same,glycan array binding signal (z-score),Gal6S(b1-4)Glc,-0.21
same,glycan array binding signal (z-score),Gal6S(b1-4)Glc6S,-0.179
same,glycan array binding signal (z-score),Gal6S(b1-4)GlcNAc,-0.223
same,glycan array binding signal (z-score),Gal6S(b1-4)GlcNAc6S,-0.215
same,glycan array binding signal (z-score),GalNAc(a1-3)Gal,-0.214
same,glycan array binding signal (z-score),GalNAc(a1-3)GalNAc,-0.241
same,glycan array binding signal (z-score),[6],0.119
same,glycan array binding signal (z-score),[7],0.156
same,glycan array binding signal (z-score),GalNAc(b1-3)Gal,0.443
same,glycan array binding signal (z-score),[8],-0.195
same,glycan array binding signal (z-score),[9],0.57
same,glycan array binding signal (z-score),[10],-0.222
same,glycan array binding signal (z-score),GalNAc(b1-3)GalNAc,-0.243
same,glycan array binding signal (z-score),GalNAc(b1-3)GlcNAc,-0.272
same,glycan array binding signal (z-score),GalNAc(b1-4)Gal(b1-4)Glc,-0.31
same,glycan array binding signal (z-score),GalNAc(b1-4)GlcNAc,-0.21
same,glycan array binding signal (z-score),[11],-0.298
same,glycan array binding signal (z-score),[12],-0.172
same,glycan array binding signal (z-score),[13],-0.278
